Laboratory results: PubChem BioAssay AID1347073 (National Center for Advancing Translational Sciences (NCATS), 2019)
Among all 45,000 compounds or so, about 200 (0.44%) were called active. Not shown: some 7% with an inconclusive outcome. The call rests on the fitted dose curve; in most records, active means well fitted activation curve with a large enough effect; inconclusive means small, poorly fitted or top-dose-only effect; inactive means no such curve, though single readings can be large or run the other way. Some of the results follow.

experiment: qHTS of TDP-43 Inhibitors: NCGC Sytravon Library Screen; settings: yeast TDP-43 toxicity rescue, BacTiter-Glo growth, 24 h; series mostly up to 46.1 µM; growth rescue (activation): at the top concentration; further: 0% is about no effect; nearly all actives have a fitted effect of over 55% in size
Method in brief: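 TDP-43-expressing yeast, pregrown in raffinose, seeded at OD600 0.02 in galactose medium with compound for 24 hr at 30 deg C. Growth read by BacTiter-Glo luminescence, so rescue of toxicity appears as activation.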

Row | SMILES | growth rescue (activation) | Potency
1 | Cc1csc(NC(=O)c2cn3ccccc3n2)n1 | inactive: -23.9% | 
2 | O=C(Nc1ccc(C(=O)O)c(O)c1)c1ccccc1 | inactive: -6.51% | 
3 | COC(=O)c1nc[nH]c1C(=O)OC | inactive: 0.0478% | 
4 | O=C(Nc1c(Cl)cccc1Cl)c1cc(-c2ccco2)on1 | inactive: 9.33% | 
5 | Cc1ccc(Nc2nc(C)c(CCC(C)C)c(=O)[nH]2)cc1 | inactive: 21% | 
6 | CC(C)n1cc(CN2CCC(n3nccc3NC(=O)CCCc3ccccc3)CC2)cn1 | inactive: 8.86% | 
7 | CCc1cccc(C)c1NC(=O)Cn1nc(C)n2cccc2c1=O | inactive: 0.809% | 
8 | Cc1ccc2cc(/C=N/NC(=O)c3ccccc3O)c(Cl)nc2c1 | inactive: 14.2% | 
9 | COc1cc(C(=O)Nc2nc(-c3ccc(Cl)cc3)c(C)s2)ccc1OCC(=O)Nc1ccc(F)cc1 | inactive: 10.8% | 
10 | Cc1ccc(N2CCN(CC(O)COc3ccc([N+](=O)[O-])cc3)CC2)cc1 (stereo unspecified) | inactive: 1.65% | 
11 | O=C(N[C@@H](Cc1c[nH]c2ccccc12)C(=O)O)c1ccc(Cl)cc1 | inactive: 3.17% | 
12 | N#C/C(=C\c1ccc(OCc2ccc(Cl)cc2)cc1)C(=O)Nc1cccc(C(=O)O)c1 | inactive: 26.9% | 
13 | S=C(Nc1ccccc1Cl)N1CCC(c2ccccc2)C1 (stereo unspecified) | inactive: 17.5% | 
14 | O=C(CCc1nc(-c2ccc(F)cc2)no1)NCc1ccccc1CN1CCOCC1 | inactive: 3.07% | 
15 | COC(=O)c1cc(CNC(=O)Cc2ccsc2)ccc1OC | inactive: 9.93% | 
16 | Cc1nn(C)cc1CN(C)C(=O)c1cc(-c2ccccc2)nc2ccc(Br)cc12 | inactive: 32.7% | 
17 | COc1ccc(C(C)(C)C)cc1NC(=O)C1CC(=O)N(C2CCCC2)C1 (stereo unspecified) | inactive: 6.22% | 
18 | O=C(CN=C1NS(=O)(=O)c2ccccc21)OCC(=O)c1ccccc1 | inactive: 12.3% | 
19 | Cc1ccc(CN2C(=O)S/C(=C\c3ccccc3OCC(=O)O)C2=O)cc1 | inactive: 27.8% | 
20 | CCOC(=O)C(C)(C)N(Cc1ccccc1C)S(=O)(=O)c1ccc(Cl)c([N+](=O)[O-])c1 | inactive: 7.18% | 
21 | CCOC(=O)CSc1ccc(C(=O)Nc2ccc(Cl)cc2)cn1 | inactive: -1.37% | 
22 | O=C(CCNC(=O)c1ccc([N+](=O)[O-])cc1)NC1CCCc2ccccc21 (stereo unspecified) | inactive: -7.23% | 

Row | SMILES | growth rescue (activation) | Potency
23 | CC(C)C[C@H](NC(=O)NCc1ccc(F)cc1)C(=O)O | inactive: 7.61% | 
24 | O=C(Nc1ccc(Cl)cc1F)C1CC1 | inactive: 16% | 
25 | CCOc1ccccc1-n1c(SCC(=O)Nc2ccccc2C(=O)O)nc2ccccc2c1=O | inactive: 15.2% | 
26 | O=C(c1cc(COc2ccc(F)cc2Cl)on1)N(Cc1ccncc1)CC1CCCO1 (stereo unspecified) | inactive: 10.7% | 
27 | C=CCSc1nc2ccccc2c(=O)n1C1CCOC(C)(C)C1 (stereo unspecified) | inactive: 17.2% | 
28 | CC(=O)N1CCN(C(=O)c2ccc3c(c2)OCO3)CC1 | inactive: 6.5% | 
29 | CCCNC(=O)c1ccc(COc2ccc(CCC)cc2OC)o1 | inactive: 3.93% | 
30 | CCOC(=O)c1sc(C)c2c(=O)n(CCc3ccccc3)nnc12 | inactive: 29.9% | 
31 | CCOc1ccc(C(=O)NC(=S)Nc2ncccc2C)cc1[N+](=O)[O-] | inactive: 20.2% | 
32 | O=C(Cn1c2ccccc2c(=O)c2ccccc21)N/N=C/c1cc([N+](=O)[O-])ccc1N1CCCCCC1 | inactive: 23.2% | 
33 | COC(=O)C(C)Oc1ccc2c(c1)O/C(=C\c1ccco1)C2=O (stereo unspecified) | inactive: 4.19% | 
34 | CSc1ncccc1C(=O)OCc1c(F)cccc1Cl | inactive: 9.73% | 
35 | CCC1CCCCN1S(=O)(=O)c1ccc(S(=O)(=O)N(Cc2ccccn2)CC2CCCO2)cc1 (stereo unspecified) | inactive: 5.24% | 
36 | C/C(=N\N(C)C)c1ccc(OCCOc2ccc([N+](=O)[O-])cc2)cc1 | inactive: 43.9% | 
37 | COc1ccc(CC(=O)Nc2nc(-c3cccc([N+](=O)[O-])c3)cs2)cc1 | inactive: 4.94% | 
38 | O=C(Nc1ccccc1F)N(CCCN1CCOCC1)Cc1cc2cc3c(cc2[nH]c1=O)OCCO3 | inactive: -28.6% | 
39 | C=CCOc1ccc(C=Nc2ccc(Cl)cc2)c(O)c1 | inactive: -3.51% | 
40 | COc1cc(OC)nc(Nc2nc(C(N)c3ccccc3)cs2)n1 (stereo unspecified) | inactive: 13% | 
41 | CC(=O)Oc1cc(OC(C)=O)c2c(=O)c(-c3ccc4c(c3)OCCCO4)c(C)oc2c1 | inactive: 9.73% | 
42 | O=C(NCCCNC(=O)c1ccc(Cl)cc1Cl)c1ccccn1 | inactive: -9.31% | 
43 | O=C(CNC(=O)c1ccccn1)N=Nc1c(O)[nH]c2ccccc12 | inactive: 18.8% | 
44 | CCOc1ccc(N(CC(=O)N/N=C/c2cccnc2)S(C)(=O)=O)cc1 | inactive: 11.3% | 

Row | SMILES | growth rescue (activation) | Potency
45 | Cc1ccc(NC(=O)Nc2ccc3c(c2)nc(C)n3C)cc1 | inactive: -7.4% | 
46 | CCOC(=O)C1CCN(Cc2c(O)c3ccccc3oc2=O)CC1 | inactive: -9.41% | 
47 | COC(=O)c1sc2nc(CN3CCN(c4cccc(C(F)(F)F)c4)CC3)[nH]c(=O)c2c1C | inactive: 6.47% | 
48 | CSCCC(NC(=O)c1ccccc1C)C(=O)O (stereo unspecified) | inactive: 11.4% | 
49 | CC(=O)Nc1ccc(-c2ccnc3c2CC(C)(C(=O)NCC2CCOCC2)O3)cc1 (stereo unspecified) | inactive: 2.67% | 
50 | Cc1ccc(NC(=O)C2(c3ccccc3)CCOCC2)c([N+](=O)[O-])c1 | inactive: 14.2% | 
51 | CC(C)[C@H](NC(=O)c1ccccc1)C(=O)N1CCc2ccccc21 | inactive: 0.7% | 
52 | CCN(CC)C(=O)c1ccccc1NC(=O)CN1C(=O)c2ccccc2S1(=O)=O | inactive: -6.71% | 
53 | COCCc1ccc(OC2(C)CCN(Cc3cccc(OCOC)c3)C2)cc1 (stereo unspecified) | inactive: -9.3% | 
54 | CN1CCC(NC(=O)Cc2c(F)cccc2Cl)CC1 | inactive: -15.1% | 
55 | CCCc1ccc(O)c(N=Cc2cc(Br)cc(OCC)c2O)c1 | inactive: 20.8% | 
56 | CC(=O)c1sc(NC(=O)c2ccccc2C)nc1C | inactive: 16.1% | 
57 | Cc1nn2c(SCC(=O)c3cccs3)cc(C(C)(C)C)nc2c1-c1ccccc1 | inactive: 1.89% | 
58 | COC(c1ccccc1)c1nnc(CCC(=O)N2CCCCCCC2)o1 (stereo unspecified) | inactive: 5.7% | 
59 | O=C(Nc1nc(-c2cccc3ccccc23)cs1)c1ccc2c(c1)S(=O)(=O)c1ccccc1C2=O | inactive: -0.225% | 
60 | CC(=O)NCc1ccc(C(=O)CCl)cc1 | inactive: 21.9% | 
61 | O=C(CN1CCN(c2ccccc2)CC1)Nc1cccc([N+](=O)[O-])c1 | inactive: 0.14% | 
62 | Cc1cccc(C)c1NC(=O)CSC(=S)N1CCCC1 | inactive: 18.1% | 
63 | O=C(CN1C(=O)CSc2ccc(S(=O)(=O)N3CCOCC3)cc21)NCc1cccnc1 | inactive: -13% | 
64 | COC(=O)C1=C(C)N(C)C(=O)NC1c1ccccc1 (stereo unspecified) | inactive: 1.73% | 
65 | Cn1c(CCNC(=O)c2ccco2)nc2cc(NC(=O)c3ccccc3Cl)ccc21 | inactive: -4.87% | 
66 | COc1cccc(C(=O)Nc2ccc3[nH]ncc3c2)c1 | inactive: 9.53% | 

Row | SMILES | growth rescue (activation) | Potency
67 | CCc1ccc(Nc2nnc(SCn3nnc4ccccc4c3=O)s2)cc1 | inactive: 2.76% | 
68 | O=C(CC1S/C(=N\S(=O)(=O)c2ccccc2)N(c2ccccc2)C1=O)Nc1ccc(F)cc1 (stereo unspecified) | inactive: 4.88% | 
69 | CC(=O)c1ccc(OCc2cc(C(=O)N(C)Cc3ccccn3)no2)cc1 | inactive: 21.7% | 
70 | Cc1ccc(CNC(=O)CCNS(=O)(=O)c2ccc(Br)s2)cc1 | inactive: 14.7% | 
71 | O=C(Cc1cc(C(=O)O)c2ccccc2n1)Nc1ccccc1 | inactive: -0.318% | 
72 | Cc1cc(C)nc(NC(=O)/C=C/c2ccc(Cl)cc2)n1 | inactive: 21.9% | 
73 | CC(C)C1Oc2ccccc2N(CC(=O)N2CCOCC2)C1=O (stereo unspecified) | inactive: 8.89% | 
74 | CCCn1c(C)cc(C(=O)COC(=O)CN=C2NS(=O)(=O)c3ccccc32)c1C | inactive: 20.8% | 
75 | COC(=O)c1ccc(CSC2=NCCS2)cc1 | inactive: 18.7% | 
76 | Cc1c(NS(=O)(=O)c2cc(C(=O)OCC(=O)N3CCC(C)CC3)ccc2Cl)c(=O)n(-c2ccccc2)n1C | inactive: 16.8% | 
77 | CC(=O)Nc1ccc(NC(=O)C/C(C)=N/NC(=O)c2cccc3ccccc23)cc1 | inactive: 18.9% | 
78 | Cc1ccc(CNC(=O)C2CCN(S(=O)(=O)c3ccc(Br)s3)CC2)cc1 | inactive: -3.02% | 
79 | CC(/C=C/c1ccccc1)=N\NC(=O)Cn1cncn1 | inactive: 16.8% | 
80 | COc1cc(OC)c(C2C3=C(CCCC3=O)Nc3nc4ccccc4n32)cc1OC (stereo unspecified) | inactive: 9.05% | 
81 | Cc1cc(NC(=O)COc2ccc(C(C)(C)C)cc2)no1 | inactive: 4.67% | 
82 | COCC(=O)N1CCc2ccc(NC(=O)c3ccc(C(F)(F)F)cc3)cc2C1 | inactive: 9.93% | 
83 | COc1cc(CNCc2ccco2)cc(OC)c1O | inactive: 4.27% | 
84 | CCCCN(C)CCCNC(=O)c1cc(-c2cccs2)nc2ccccc12 | inactive: -8.87% | 
85 | CCOC(=O)Cn1c(=O)oc2cc(S(=O)(=O)N(C)c3cccc(C)c3)ccc21 | inactive: 9.04% | 
86 | Cc1ccc(-n2ncc3c(Nc4cccc(C(=O)O)c4)ncnc32)cc1 |  | inactive
87 | O=C(Nc1ccccc1N1CCN(C(=O)c2ccccc2)CC1)c1ccco1 | inactive: 17% | 
88 | Cc1nc2ccc(NS(=O)(=O)c3cccc([N+](=O)[O-])c3)cc2s1 | inactive: 27.8% | 

Row | SMILES | growth rescue (activation) | Potency
89 | COc1ccc(NC(=O)CCc2nc3ccccc3s2)c(OC)c1 | inactive: -17.6% | 
90 | COc1ccc(N2CCN(C(=O)/C=C/c3ccco3)CC2)cc1 | inactive: 5.96% | 
91 | COc1cc(Br)cc(C2C3=C(CCCC3=O)N(c3ccc(F)cc3)C3=C2C(=O)CCC3)c1O | inactive: 4.69% | 
92 | Cc1ccc(-c2cc(C(=O)Nc3cccc(S(=O)(=O)N(C)C)c3)c3ccccc3n2)o1 | inactive: 6.74% | 
93 | OC[C@@H]1CN(Cc2cccs2)C[C@H](n2cnc3c(NCc4ccco4)ncnc32)O1 | inactive: 8.33% | 
94 | CC(C)c1ccc(S(=O)(=O)N2CCN(C(C)C(=O)Nc3ccccc3-c3ccccc3)CC2)cc1 (stereo unspecified) | inactive: 15.2% | 
95 | Cc1ccc(/C=C2\SC(=S)N(CCC(=O)NNC(=O)c3ccccc3O)C2=O)cc1 | inactive: 10.1% | 
96 | CNC(=S)N/N=C/c1ccc(-c2cccc(C(=O)O)c2)o1 | inactive: -39.8% | 
97 | COC(=O)c1c(C)[nH]c(C(=O)CSc2nnnn2-c2ccccc2)c1C | inactive: 9.58% | 
98 | COc1ccc(NC(=O)CCC(=O)c2cc(C)sc2C)cc1 | inactive: 15.5% | 
99 | O=C(CNS(=O)(=O)c1cccc(Br)c1)NCC1CCCCC1 | inactive: 12.2% | 
100 | COc1ccc(S(=O)(=O)N2CCOCC2)cc1NC(=O)CN1CCCc2ccccc21 | inactive: -2.48% | 
101 | COc1ccc(S(=O)(=O)N(CC(=O)NCc2ccccn2)Cc2ccccc2)cc1 | inactive: 8.2% | 
102 | O=C(c1cc2ccccc2oc1=O)N(Cc1cccs1)CC1CCCO1 (stereo unspecified) | inactive: -7.61% | 
103 | Cc1ccc(OCC(=O)NCCCNC(=O)c2ccccn2)cc1 | inactive: 0.211% | 
104 | CSc1ccc(C(=O)C2CCCN(C(=O)c3cccc(N4CCOCC4)c3)C2)cc1 (stereo unspecified) | inactive: 18.4% | 
105 | Cc1ccc(S(=O)(=O)N[C@H](C(=O)OCC(=O)N2N=C(c3ccc(Cl)cc3)CC2c2ccco2)C(C)C)cc1 (stereo partly specified) | inactive: 15.4% | 
106 | COCCn1c(Sc2nc(C)cs2)nc2c1c(=O)[nH]c(=O)n2C | inactive: 19.9% | 
